# According to the supplement of paper PMC11417369:
# The list shows a part of the results.
# Tested on: PF3D7_0420300 AP2 domain 1 (GST-tagged)
# Assay: gcPBM binding intensity (ln(normalized median fluorescence intensity)); higher = stronger DNA binding
# Procedure, shortened: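 After 1 h on an Agilent 4 × 180k array of primer-extended double-stranded 36-bp intergenic genomic probes and negative controls, bound GST-tagged P. falciparum DNA-binding domains were detected with Alexa488 anti-GST antibody and scanned at 488 nm. The domains had been expressed in E. coli, and binding took place in 1× PBS with 1% milk, 0.2 mg/ml BSA, 0.5% salmon testes DNA and 0.03% Triton X-100. Binding intensity is the highest Masliner-normalised natural-log median intensity across replicate spots of either probe orientation.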
row,Sequence,gcPBM binding intensity (ln)
1,TAAATTAAAAAAAATACACACACACCGACACATATA [CACACA_site9084],10
2,TTCGTAACTGATTCAACACACAAAAGGGGGAAAATT [CACACA_site1754],9.57
3,AAAAAGAAGAATAATACACACAAATTACTTTATATA [CACACA_site6984],9.54
4,ATATTATAGAAATATACACACATTGTTTTATAGCAT [CACACA_site7177],9.54
5,AATTACAAATATTCATGTACATATTTATAAATACAT [XGTACX_site5430],9.19
6,ATATATATATATATGTGTACATATATTAAGATATAT [XGTACX_site1065],9.29
7,TATGTTATATAATATTGTACACAAAATGGTTTCTAT [XGTACX_site7686],9.2
8,TATTAAATATTGTATACATGCAAATACTAGAAAATT [TGCATGCA_site370],9.32
9,AATAATATAAATATTACACACTAATTGTATTATAGA [CACACA_site6347],9.29
10,TATATAACCGAGTGCACACACAAAAAAAAAGTGAAC [CACACA_site6806],10
11,AGGAAACAAGAAATGAAGAATCATGTAGAAGGCCCA [GTGCAC_negctrl_site187],9.33
12,ATAAATAATAAAAAATGTACACATATAAATATAAAG [XGTACX_site727],9.47
13,ATGATGAAAATAGAAATACACACTAAAAAATAAAAT [CACACA_site1136],9.8
14,AAAACATGTTCAACATGTACACAACAGGATGAATAT [XGTACX_site506],9.57
15,CTTACTTACTTACTCACACACATATACAAAGAAAAA [CACACA_site3347],9.64
16,AAATATATGTTATATGTGCACTTTTTTTTTTTTTTT [GTGCAC_site9667],9.24
17,TAAAATGAATATAGGTGTACTTAAAAAAAAGTAAAA [XGTACX_site4613],9.12
18,TAAATTCTTTATAATCGTACATAAATAGAAAAATAA [XGTACX_site601],8.95
19,TAAAAGAAATAATATACACACATATATAAAAATAAA [CACACA_site1329],9.6
20,TATCGAGCCATTTTTACATGCAATTATACATAATTT [TGCATGCA_site987],9.26
21,CATGTATACTATAATACACACTATAAAATATACACC [CACACA_site7121],9.58
22,TTCAAATAATTTAAATGTACGTTGCTTTATTAAAAG [XGTACX_site3674],9

row,Sequence,gcPBM binding intensity (ln)
1,GTTTTGTACATATTCTCACACATATAAAAATACCCA [CACACA_site4446],9.37
2,TTCATAATAAAAAGGTGTACATATATATATATATAT [XGTACX_site2829],9.39
3,AAGCATTTAATGTTTTATATAACATGTATTTTTTAT [CACACA_negctrl_site673],9.3
4,TTTATATGTATACAAACATATAAATATAAATGTATT [TGCATGCA_negctrl_site346],9.12
5,TGTTCTATGATTTGTACACACTTTTTTTTAAAATGC [CACACA_site5558],9.38
6,TATATATACATATACACACACACACCGATATATATA [CACACA_site8706],10.2
7,GAATGCATGTAAATATGTACATATATTTAAAAATTT [XGTACX_site6032],9.07
8,TGTTAAAAGGTTAAATTAAAATAACCTCCGGAAATT [GTGCAC_negctrl_site236],9.02
9,ATAAATATATATTTACGTACATATTATATATATATA [XGTACX_site6172],9.27
10,AAAAAAATTTCACATTGTACTTTAATAATATACTAC [XGTACX_site7264],9.07
11,ACATATAAATTGTGTACACATATATATATATTTTTT [CACACA_site5946],9.4
12,TTATATAATCCTTTCAAACACACAAAATATAATTAA [CACACA_site1830],9.28
13,AGTGAAAAAAAATTTACACACATAAAATATAAACGA [CACACA_site3724],9.8
14,AAATAAAATACATATAAACACACATATAAACCAACA [CACACA_site8789],10
15,AAAAAAAATATAAGTGGTACTCACATAAAGACATAT [XGTACX_site3709],9.54
16,TAATACTTTTAATCTACACACGCTGAGACATGCTTT [CACACA_site1484],9.22
17,TTTTTAGTTCATTAAACACACAAAAAAAAAAATAAA [CACACA_site6035],9.22
18,TTTTTTATTCTTTTTGCACACAGGAAATTTACAGAT [CACACA_site1090],9.46
19,AAAATAAAAAGAAAAAATAAAAAGAAAAAATAAAAA [CACACA_negctrl_site120],9.35
20,ATATTTATAACTTGTACACACAAATATGCATATATA [CACACA_site7583],9.56
21,TTAAAATTTTTTTTTTTTTTTTTTTTTTTTTTTTTC [CACACA_negctrl_site957],8.62
22,TTATTATTCCCTCATTTTGTTACCATTATTTCAATT [CACACA_negctrl_site1023],9.69

row,Sequence,gcPBM binding intensity (ln)
1,TTGTTAAAATTATTAAGTTAAATATCGATTTGTAAA [XGTACX_negctrl_site429],8.81
2,TATAAGTTTATATATACACACATATATATATATATA [CACACA_site3274],9.35
3,TACAAAAAAAGATGATGTACAATGAAAAATAAGAAA [XGTACX_site5840],9.6
4,ATAAATAATTGTAGTTGTACATGATATTTTTATTAC [XGTACX_site550],9.25
5,AAAAAAAAAAAAAACACACACACAAATACAAATACA [CACACA_site414],10.1
6,AAATGGACCTAATTATCACACATTATACTCGTTTTC [CACACA_site5996],9.47
7,ATATATCATAATAAAAGTACTTATATATTTTATATA [XGTACX_site560],9.11
8,AAAATAAATAAATATACACACCATATATATATTTTT [CACACA_site5573],9.57
9,TTTAACGTTGAATATACACACATATATTTATTTATA [CACACA_site7695],9.39
10,AAAATGTACTTTTTCTAAAGAGTAATGATGCTTGAT [CACACA_negctrl_site1124],9.02
11,AATCCTTTAAAACACACACACAAAAAAAAAAAAAAA [CACACA_site642],9.63
12,TATAGTAAAATTAGGGTGCTTTTGTAACAAAAAAAA,9.23
13,TTATTTTCTTTCTATGCACACGCACGTATTTGCCCA [CACACA_site9104],9.31
14,TGCTTCATAAATAAAACATGCAATATAGAAATTAAA [TGCATGCA_site690],8.97
15,AGAGTAGGAAATGGAAAAATAAAATAAATAAATAAA [XGTACX_negctrl_site69],9.1
16,AAATATATATACCACACACACATACCTCTATTTGTA [CACACA_site1854],10.1
17,TTTTGTAAAAGGTATATATATATATATATATATATA [GTGCAC_negctrl_site734],8.9
18,AATAAAAAAATAAAAAAAAAAAAAAATAAAAAAAAA [GTGCAC_negctrl_site12],9.11
19,CGTATTTTAATATTTACACACTTATTTTTTATATAA [CACACA_site125],9.42
20,TATAGCATATTTCACACACACATAATGAATATTATA [CACACA_site3545],9.8
21,TTTATATAGAAAAATTGTACGAATTACTTTTTTATA [XGTACX_site6843],8.85
22,AATAAAATAATAGGCACACATATATATATATATTAT [CACACA_site273],9.63

row,Sequence,gcPBM binding intensity (ln)
1,ATATATCTACATATATGTACATATATGTATATGTAT [XGTACX_site5432],9.21
2,ATATCCTACTTCTAGTGTACATATATGGACTGATGA [XGTACX_site3683],9.22
3,TACAATTTATGACACACACACAATAATACCTATATA [CACACA_site6704],9.95
4,AAAAAAAAAAAACACACACACACACTAGTACATACA [CACACA_site4551],10.2
5,TATATATATATATGTGCACACATAAAGATATTATTT [CACACA_site3734],9.55
6,ATGAAATATGCACAGTGTACTTTTATGAGGAACATA [XGTACX_site426],9.27
7,TTTTTAATACAAAAAAAATAATATGTTATATTTCAA [CACACA_negctrl_site35],8.81
8,TGCCCTTTGGTTATAACACACATGCACACGTAAATA [CACACA_site7750],9.72
9,AATTAACCGTGACACACACACATATAAATATAAATA [CACACA_site7790],9.86
10,GGGAATATATAAGATACACACACAAATTAAATATAA [CACACA_site8898],9.87
11,TATATATATATATATACACACACACCCACCAAAGCG [CACACA_site7904],9.79
12,CACAAATAAATATTCACACATATATGTCTTATATAT [CACACA_site5323],9.29
13,ATCAAATTTTTGTTATGTACACAATCATTTAATAAA [XGTACX_site810],9.12
14,ATTACAATAAATTCGTGTACATGATACCGCCGCTAC [XGTACX_site8997],9.21
15,TAATTATTATTAAATACACACACATACCTCCATGTT [CACACA_site9134],9.87
16,AAAAAAAAAAAATAGGTGCGTGTTACTTTTGTATGC [GTGCAC_site9524],9.26
17,TATATATATATATATGTGCGCATATATTTTTTTGTA [GTGCAC_site9983],9.27
18,ACAAAATTTACAAAATGTACAAAATATACAAAATAT [XGTACX_site6465],9.19
19,CATGAGGTATAAAAGGTGCAAATTAATGAGAACATT,9.3
20,TTATATCAAGGGAATGCATGCATATCGTTTTGTATT [TGCATGCA_site327],9.35
21,AATAATATACATATATATATTATATTGTAATTTTGT [TGCATGCA_negctrl_site1],9.18
22,ACTAGACAAAATATAATGCACACTATTATTTTTATT [CACACA_site2726],9.45
